# Assay results: PubChem BioAssay AID493208 (National Center for Advancing Translational Sciences (NCATS), 2011)
# The campaign covered roughly 44,000 compounds. About 340 (0.77%) were called active. Inconclusive results (about 5%) are left out. Calls follow the shape of the dose curve; as a rule, active = well fitted inhibition curve with a large enough effect; inconclusive = small, poorly fitted or top-dose-only effect; inactive = flat fitted curve, though single readings scatter. This is one part of the list.
# Test: Acumen qHTS Assay for Inhibitors of the mTORC1 Signaling Pathway in MEF (Tsc2-/-, p53-/-) Cells: Sytravon; also: nearly all actives have a fitted effect of over 50% in size;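 as to activity change, negative = inhibition: plate controls were DMSO for no effect and rapamycin for full effect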
# Conditions: phospho-rpS6 immunofluorescence/PI, 24 h; series mostly up to 38.3 µM; activity change, negative = inhibition: at the top concentration
# Method in brief: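 Read-out: phospho-S6 Alexa-488 intensity over PI intensity per well, scored as % active cells using thresholds from rapamycin (7.5 nM) and DMSO controls. Tsc2-/-, p53-/- MEFs exposed to compound for 24 h; PI cell count recorded as viability.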
# Potency is read from the fitted curve at half-maximal effect.
Compound,"activity change, negative = inhibition",Potency
COc1ccc(N2CCN(C(=O)c3cn(C)c4ccc(S(=O)(=O)N5CCOCC5)cc4c3=O)CC2)cc1,inactive: 1.17%,–
CCC1Oc2ccccc2N(CC(=O)NCc2ccccc2)C1=O (stereo unspecified),inactive: 12.7%,–
Cc1cc(Nc2cccc(Cl)c2)nc2ccc(NC(=O)Cc3c(F)cccc3Cl)cc12,inactive: -11.7%,–
Cn1c(=O)c(=O)n(C)c2cc(N3CCCC3)c(NC(=O)c3ccccc3Cl)cc21,inactive: 0.814%,–
COc1ccc2nc(N(Cc3cccnc3)C(=O)c3ccc(Cl)cc3)sc2c1,inactive: -6.4%,–
CCn1c(=O)c2sccc2n2c(CCCC(=O)Nc3ccc(Oc4ccccc4)cc3)nnc12,inactive: -1.72%,–
CCOc1ccccc1CNC(=O)CN1C(=O)c2cccnc2Oc2ccc(C)cc21,inactive: -3.59%,–
COc1ccc(-c2noc(CC(=O)N(C)c3cc(Cl)c(OC)cc3OC)n2)cc1,inactive: -3.92%,–
CCCCN(C)C(=O)c1ccc2c(c1)NC(=O)C(CC(C)C)N2 (stereo unspecified),inactive: 11.1%,–
COc1ccc(OC)c(NC(=O)N2CCC3(CC2)Oc2ccccc2C(=O)N3Cc2ccccc2F)c1,inactive: -13.7%,–
CCN1C(=O)C2(c3ccccc31)c1c(oc3ccccc3c1=O)C(=O)N2CCOC (stereo unspecified),inactive: -7.81%,–
Cc1ccc(NC(=O)c2nc(S(C)(=O)=O)ncc2N(Cc2ccco2)Cc2ccco2)cc1,inactive: 1.98%,–
CN(Cc1ccccc1)c1nc2c(S(=O)(=O)c3ccccc3)nnn2c2ccsc12,inactive: 4.8%,–
Cc1ccc(S(=O)(=O)c2nnn3c2nc(NC2CCCCC2)c2sccc23)cc1C,–,active: 7.36 µM
Cc1ccc(OCCSc2nc3ccccc3n2CCC(=O)O)cc1,inactive: -0.313%,–
Cc1cc(C)cc(OCC(=O)N(Cc2ccco2)Cc2ccccc2Cl)c1,inactive: -27.3%,–
Cc1c(C(=O)Nc2ccccc2F)sc2nc3n(c(=O)c12)CCC3,inactive: 7.79%,–
Cc1ccc(NC(=O)Cn2c(=O)n(CC(=O)NCCc3ccccc3)c(=O)c3ccccc32)cc1,inactive: 4.74%,–
CC1CCc2nc3ncn(Cc4cccc(F)c4)c(=O)c3cc2C1 (stereo unspecified),inactive: 3.73%,–
COc1ccc(C)cc1-n1c(SCC(=O)NCc2ccco2)nc2c([nH]c3ccccc32)c1=O,inactive: -9.51%,–
COc1ccc(CNC(=O)CCc2c(C)nc3c4cccnc4nn3c2C)cc1,inactive: 13.9%,–
COc1ccc(CC(=O)Nc2nnc3n2CCS3)cc1OC,inactive: -0.0554%,–
CCc1ccccc1NC(=O)Cn1nnc(C(=O)NCc2cccc(OC)c2)c1N,inactive: -1.09%,–
CCCCN(CC)CCCNC(=O)c1nn(-c2ccc(OC)cc2)c(=O)c2c1c1ccccc1n2C,inactive: -1.13%,–

Compound,"activity change, negative = inhibition",Potency
CNC(=O)C1CCC(Cn2c(=O)c3sccc3n(CC(=O)Nc3ccccc3)c2=O)CC1 (stereo unspecified),inactive: -5.14%,–
O=C(Nc1ncc(Cc2ccccc2Cl)s1)c1ccc2c(c1)CC(c1ccccc1)OC2=O (stereo unspecified),inactive: 2.55%,–
Cc1ccc(CCNC(=O)CCCn2c(=O)c3cccn3c3ccc(F)cc32)cc1,inactive: 4.81%,–
CCCCN(CC)CCCNC(=O)c1sc2nc3n(c(=O)c2c1C)CCCCC3,inactive: 6.69%,–
O=C(CN1C(=O)COc2ccc(Cl)cc21)Nc1cccc(C(=O)O)c1,inactive: -0.755%,–
COCCNC(=O)c1cc(-c2cccc(Cl)c2)on1,inactive: -4.89%,–
COc1cc2[nH]c(=O)n(CCCC(=O)N(C)Cc3ccccc3)c(=O)c2cc1OC,inactive: -11.7%,–
CCOC(=O)c1ccc(N2C(=O)c3n[nH]c(C)c3C2c2ccc(CC)cc2)cc1 (stereo unspecified),inactive: 6.89%,–
CCc1ccccc1NC(=O)Cn1nc(C)c2nn(-c3ccc(Cl)cc3)c(C)c2c1=O,inactive: -20.6%,–
CCc1ccc(S(=O)(=O)c2cn(C)c3ccc(C)cc3c2=O)cc1,inactive: -7.92%,–
Cc1ccc(NC(=O)Cn2cc(S(=O)(=O)Cc3ccccc3)c3ccccc32)cc1C,inactive: -13.7%,–
COC(=O)c1cc2occc2n1Cc1nc(-c2ccc(Cl)cc2)oc1C,inactive: -4.37%,–
Cc1ccc(-n2nc(C(=O)N(C)c3ccccc3Cl)c3c4ccccc4n(C)c3c2=O)cc1,inactive: 0.0235%,–
CN(C)S(=O)(=O)N(CC(=O)NCCSCc1ccc(Cl)cc1Cl)c1ccccc1,inactive: 0.355%,–
CCOC(=O)C(Cc1ccccc1)NC(=O)Cn1nnc(-c2ccc(C)cc2)n1 (stereo unspecified),inactive: -10.5%,–
CSc1ccc(CCNC(=O)C2CCCN(S(=O)(=O)N(C)c3ccc(F)cc3)C2)cc1 (stereo unspecified),inactive: -22.4%,–
COc1ccc(NC(=O)CN2C(=O)C(c3ccccc3)=NC23CCC(C)CC3)cc1Cl (stereo unspecified),inactive: -6.64%,–
Cc1cccn2c(=O)cc(COc3cccc(NC(=O)Nc4cccc(Cl)c4)c3)nc12,inactive: -9.72%,–
COc1ccc(-n2ccnc(NCCc3ccc(S(N)(=O)=O)cc3)c2=O)cc1Cl,inactive: 2.49%,–
O=C1Cc2cc(S(=O)(=O)Nc3cccc(C(F)(F)F)c3)cc3c2N1CCC3,inactive: -0.236%,–
COc1ccc(C(C)C)cc1S(=O)(=O)NCCc1c(C)[nH]c2c(Cl)cccc12,inactive: -24%,–
C[C@H](NC(=O)OC(C)(C)C)c1nnc(SCc2ccc(Cl)cc2Cl)o1,inactive: -8.91%,–
CC(C)c1ccc(NC(=O)[C@H]2O[C@@H]3OC(C)(C)O[C@@H]3[C@H]3OC(C)(C)O[C@H]32)cc1,inactive: -6.52%,–
CCN(CC)c1ccc2nc3c(=O)n(C)c(=O)n(C)c3nc2c1,inactive: -6.46%,–

Compound,"activity change, negative = inhibition",Potency
Cc1nn(CC(=O)N2CCN(c3ccccc3F)CC2)c(=O)c2cccn12,inactive: 0%,–
Cc1cc(OC(C)C(=O)N(Cc2ccco2)Cc2ccco2)cc(C)c1Cl (stereo unspecified),inactive: -3.19%,–
CCn1nc(C)c(CCN(C)C(=O)Nc2cc(Cl)c(OC)cc2OC)c1C,inactive: 0%,–
CCN(Cc1ccccc1)C(=O)Cn1c(=O)cc(C)c2c(C)nn(-c3cccc(F)c3)c21,inactive: -20.3%,–
O=C(CSc1oc(-c2ccc(F)cc2)nc1S(=O)(=O)c1ccccc1)c1ccc(Cl)cc1,inactive: -19.9%,–
CC(C)c1nn2c(=O)cc(COC(=O)c3cccc(NC(=O)CCc4ccccc4)c3)nc2s1,inactive: 9.18%,–
CCOc1ccc(-c2nnc(SCC(=O)NC3CCCCC3)nc2-c2ccc(OCC)c(OC)c2)cc1OC,inactive: -4.12%,–
CCc1ccc2occ(CC(=O)Nc3nnc(SC)s3)c2c1,inactive: 1.57%,–
CC(C)c1ccc(NC(=O)C2CCC(CNS(=O)(=O)c3ccc4c(c3)CCCC(=O)N4)CC2)cc1 (stereo unspecified),inactive: 5.05%,–
COc1ccc(CNC(=O)CCn2c(=O)c3cccn3c3ccc(F)cc32)cc1OC,inactive: -6.98%,–
CCN1C(=O)c2ccccc2S(=O)(=O)c2ccc(C(=O)NCc3ccc(C)cc3)cc21,inactive: -1.01%,–
CCOC(=O)c1[nH]c(C)c(CCC(=O)N2CCN(c3ccc(Cl)cc3)CC2)c1C,inactive: -1.35%,–
CCS(=O)(=O)c1nc(S(=O)(=O)c2ccc(Cl)cc2)c(NCc2ccc(Cl)cc2)s1,inactive: -4.55%,–
COc1ccc(-c2ccc(=O)n(CC(=O)Nc3ccc(Br)cc3F)n2)cc1,inactive: -0.233%,–
Cn1c(=O)c2c(-c3ccccc3)n(-c3cccc(C#N)c3)cc2n(C)c1=O,inactive: -3.99%,–
O=C(O)c1ccc(Nc2ncnc3scc(-c4ccccc4)c23)cc1,inactive: 0.363%,–
CCc1ccc2nc(N(Cc3cccnc3)C(=O)Cc3ccccc3)sc2c1,inactive: 0.799%,–
COc1ccc(Cc2c(C)nn(-c3nc(C)c(C(=O)Nc4cccc(C(C)=O)c4)s3)c2C)cc1,inactive: -1.07%,–
CCC(C(=O)NCc1ccccc1Cl)n1c(=O)c2cccn2c2ccccc21 (stereo unspecified),inactive: -2.73%,–
COC(=O)c1cc(OC)c(OC)cc1NC(=O)c1ccc2c(c1)CCN2S(C)(=O)=O,inactive: 5.53%,–
Cc1ccc2c(c1)N(C(=O)c1ccc(F)cc1)C(C)(C)CC2(C)c1ccccc1 (stereo unspecified),inactive: -10.9%,–
O=C(NCc1ccccc1)c1c2c(nc3ccccc13)C(=O)N(C1CCCCC1)C2,inactive: -7.69%,–
CCc1ccccc1N1C(=O)N(Cc2cc(=O)n3ccccc3n2)c2ccccc2S1(=O)=O,inactive: -1.02%,–
COc1ccc(S(=O)(=O)N(CCc2ccccc2)CC(=O)Nc2cc(Cl)ccc2C)cc1,inactive: -9.24%,–

Compound,"activity change, negative = inhibition",Potency
CCCSc1nnc(NC(=O)c2cc(=O)c3ccccc3o2)s1,inactive: -1.35%,–
CCOC(=O)N1CCc2c(sc3c2c(=O)n(CCc2ccccc2)c(=O)n3CC(=O)Nc2ccccc2C)C1,inactive: -1.02%,–
NC(=O)c1c(NC(=O)CS(=O)(=O)c2ccc(Cl)cc2)sc2c1CCCC2,inactive: -17.7%,–
O=C(c1cccc(Cl)c1)N(Cc1cccc(F)c1)C1CCS(=O)(=O)C1 (stereo unspecified),inactive: 3.38%,–
COC(=O)c1cc2sccc2n1Cc1c(C)cc(C)cc1C,inactive: -3.7%,–
COc1ccc(NC(=O)C2CCCN(S(=O)(=O)c3ccc4[nH]c(=O)ccc4c3)C2)cc1Cl (stereo unspecified),inactive: -6.25%,–
Cc1ccc(NC(=O)C2CCN(C(=O)c3sc4nc[nH]c(=O)c4c3C)CC2)cc1F,inactive: 0.242%,–
Cc1ccc(-c2nn(CCC(=O)Nc3ccc(OC(F)(F)F)cc3)c(=O)c3ccccc23)cc1,inactive: -5.84%,–
CCOc1cccc(C(=O)N(Cc2ccc(C(C)C)cc2)C2CCS(=O)(=O)C2)c1 (stereo unspecified),inactive: 2.01%,–
COc1ccccc1C(=O)Nc1ccccc1OCc1cc(=O)n2cc(C)sc2n1,inactive: -12.9%,–
CCN1C(=O)C(Cc2nc3ccccc3c(=O)n2-c2cccc(C)c2)c2ccccc21 (stereo unspecified),inactive: 1.04%,–
Cc1ccccc1NC(=O)c1c(C)oc2ccc(O)c(CN(C)Cc3ccccc3)c12,inactive: -17.9%,–
Cc1ccc(-c2noc(-c3ccccc3OCC(=O)Nc3ccccc3[N+](=O)[O-])n2)cc1,inactive: 0.844%,–
CC(C)Oc1ccc(C(=O)NCCc2csc(-c3cccc(F)c3)n2)cc1,inactive: -0.741%,–
O=C(Nc1ncc(Cc2ccc(F)cc2)s1)c1ccc2c(c1)CC(c1ccccc1)OC2=O (stereo unspecified),inactive: -2.42%,–
CCCCCn1c(CCCNC(=O)c2ccccc2)nc2ccccc21,inactive: 3.24%,–
CCCC(=O)N1c2nc(-c3ccco3)nn2C2(CCCCC2)[C@@H]2CCCC[C@@H]21,inactive: -4.36%,–
Cc1nn(C)c2c1c(C(F)(F)F)cc(=O)n2CC(=O)Nc1ccc(F)cc1F,inactive: 5.91%,–
Cc1nnc(N2CCC(C(=O)NC3CCC(C)CC3)CC2)c2nn(-c3ccc(Cl)cc3)c(C)c12 (stereo unspecified),inactive: -5%,–
Cc1ccccc1NC(=O)CSc1nccn1C,inactive: 0.321%,–
Cc1cccc(N(C)C(=O)Cn2cnc3nc4c(cc3c2=O)CCCC4)c1,inactive: -7.83%,–
Cc1cc(C)c(NC(=O)C(C)n2nc(C)c3sc4ccccc4c3c2=O)c(C)c1 (stereo unspecified),inactive: 7.83%,–
COc1cccc(N2CC(NC(=O)c3cccs3)CC2=O)c1 (stereo unspecified),inactive: 0.506%,–
Cc1cc(Cl)ccc1NC(=O)C1CCCN(c2nnc(C)c3c(C)n(-c4ccccc4)nc23)C1 (stereo unspecified),inactive: -7.06%,–
